Self-cleavage data for 84 variants are collected here from the RNAGym collection of RNA variant scans (doi:10.1093/nar/gkz1192).

B1: CPEB3 Ribozyme (parent)
chain: UAACAGGGGGCCACAGCAGAAGCGUUCACGUCGCAGCCCCUGUCAGAUUCUGGUGAAUCUGCGAAUUCUGCUGUAUAUCUC

Read counts are not given, so values of variants with three or more changes are uncertain.

The variants in this data set derive from B1. Description: self-cleavage, relative activity (ratio to wild type); higher = more cleavage; in vitro, sequencing. The procedure, abridged: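 For each CPEB3 ribozyme variant, relative activity is its cleaved/total read fraction divided by the unmutated ribozyme's. Barcoded error-prone PCR libraries were transcribed by T7 RNA polymerase (5 hours, 37°C) and held in DNase I for 15 min before an EDTA stop, with cleavage occurring throughout. Template-switching reverse transcription and Illumina sequencing were used to read the RNAs. A 5-read minimum applied, and results are the mean of three batches.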
On to U1A G7A U25A A35G A57G, for which the self-cleavage came out at 0.19.

As for U1A U48C C71G, the self-cleavage came to 0.15.

As to U1C A13G U25C U72A, the self-cleavage worked out at 0.3.

U1C A2G A15G U25A U26C U72A A77G: the self-cleavage was found to be 0.25.

Regarding U1A C29U U60A, the self-cleavage was 0.58.

On to U1C A35G A64U, for which the self-cleavage is 1.06.

In the case of U1A G30A A45G, the self-cleavage was 0.29.

U1A G9A U49A U67A: the self-cleavage came to 0.05.

Take U1A G8U C17A U26C: the self-cleavage was 0.23.

In the case of U1A U41A C44U, the self-cleavage was found to be 0.37.

U1C A15G U51C: the self-cleavage was found to be 0.38.

Consider U1A U58A A65G U80A, for which the self-cleavage turned out to be 0.04.

For the variant U1C A5U U31C A56G U69C C81G, the self-cleavage is 0.18.

As for U1C A18U U58C U67C, the self-cleavage is 0.13.

Take U1A G19A A20U: the self-cleavage stood at 0.27.

As to U1C A21G U78C, the self-cleavage came to 0.42.

Regarding U1A G9A C12U U26C U48C U60C, the self-cleavage was found to be 0.05.

U1C A15U C17U U43A A64G: the self-cleavage worked out at 0.29.

Consider U1A G7U C37U U54A, for which the self-cleavage is 0.05.

Regarding U1C A5U G7A C38A A64G U78C, the self-cleavage stood at 0.11.

Take U1A G9A G19A A28G A45C: the self-cleavage worked out at 0.06.

In the case of U1C A13G U31A U54A A65U, the self-cleavage is 0.06.

Regarding U1C A13G U31A U48C C59U U72C, the self-cleavage is 0.03.

U1C A56G A64U U69A U80A: the self-cleavage amounted to 0.2.

For U1A U49A A64G U80C, the self-cleavage was determined as 0.47.

For the variant U1C A18G A64G U69C U72C U76C, the self-cleavage was 0.3.

In the case of U1C A3G U54C C79A U80C, the self-cleavage was 0.96.

Turning to U1C A21U U31A U41A G42U, the self-cleavage worked out at 0.11.

In the case of U1C A13C A15G U41C U51C U60C, the self-cleavage turned out to be 0.42.

As for U1A U26C A47G U51A, the self-cleavage was 0.34.

In the case of U1A G33U A35U U51A G63C, the self-cleavage stood at 0.12.

Take U1C A45G U58C: the self-cleavage amounted to 0.25.

On to U1C A2U A20U U31C, for which the self-cleavage was 0.07.

As for U1C A15G A20G A45G A47C A64G, the self-cleavage is 0.

With U1C A28C U69C, the self-cleavage was 0.13.

As to U1C A45U A56G, the self-cleavage was found to be 0.36.

As for U1C A15G C23U G42U U74C, the self-cleavage was 0.05.

With U1A U25C A56G, the self-cleavage is 0.13.

Consider U1C A20U U31C A35U U41C, for which the self-cleavage turned out to be 0.25.

In the case of U1C A15G U25A U41A, the self-cleavage worked out at 0.8.

As for U1C A2G U43A U76C, the self-cleavage worked out at 1.05.

Turning to U1C A13U U54C U60C U80C, the self-cleavage is 0.75.

Consider U1C A5U A28G A35U C50U, for which the self-cleavage worked out at 0.35.

As to U1A U74C U78C, the self-cleavage is 1.19.

Take U1A U25C C37U G52A: the self-cleavage came to 0.12.

Take U1C A20G U25A U26C U74C: the self-cleavage stood at 0.37.

As to U1C A28G C38U A47G U51A, the self-cleavage stood at 0.26.

In the case of U1C A15G U67C, the self-cleavage came out at 0.14.

For U1C A15U U25C A57G, the self-cleavage is 0.4.

On to U1C A21C A28G A56C U67C U78C, for which the self-cleavage was determined as 0.

Turning to U1A G33U U41C, the self-cleavage was determined as 0.25.

Consider U1C A2G C14U A18U U48C, for which the self-cleavage was determined as 0.07.

For U1C A13U U41A, the self-cleavage was determined as 0.35.

Regarding U1C A5G U74C U80C, the self-cleavage came out at 1.15.

For U1A G16C A28G A47G A57G U60C U66G, the self-cleavage stood at 0.08.

Consider U1C A3G U31G U41A U49C U51C A65G, for which the self-cleavage came out at 0.04.

Take U1C A2G U26C G30A C37A U54C U72G: the self-cleavage was determined as 0.08.

Turning to U1C A3G A5G A21G C68A, the self-cleavage was 0.31.

Regarding U1A U26A U31A U41C U58C U74C, the self-cleavage was found to be 0.22.

Consider U1C A28G U51A U74C, for which the self-cleavage was determined as 1.11.

U1C A18G U51C A64G U67C U80A: the self-cleavage was found to be 0.13.

U1A U31C A57G: the self-cleavage came out at 0.22.

For U1A U41C U48C U72C, the self-cleavage came to 0.63.

As for U1C A2G A20G U31A C32U U41A A64G, the self-cleavage worked out at 0.37.

With U1A G6U A20G U31C G63C A64G, the self-cleavage came to 0.22.

Turning to U1C A3C A15G A64G U76C, the self-cleavage stood at 0.21.

U1C A3G A15U U43C U54C U76A: the self-cleavage came out at 0.18.

For the variant U1C A2U A56U U72A, the self-cleavage was found to be 0.34.

In the case of U1A U41A G55U U80C, the self-cleavage turned out to be 0.37.

For the variant U1C A13U A35G U58A, the self-cleavage is 1.12.

With U1A U25C A45G U60C, the self-cleavage came out at 0.29.

With U1C A13G C44A A45G U67A U78A, the self-cleavage was found to be 0.05.

For U1C A3G A45G U51A A75U, the self-cleavage was determined as 0.73.

Take U1A G24A A56U C59U: the self-cleavage was 0.15.

For the variant U1C A13U A20G U26C A35G U78C, the self-cleavage came out at 0.76.

Turning to U1C A15U A28G U76C, the self-cleavage was determined as 0.33.

As for U1C A5G G9A, the self-cleavage is 0.44.

Turning to U1A U25C A35G U41A, the self-cleavage came to 0.31.

Consider U1A C40U U51A, for which the self-cleavage amounted to 0.75.

On to U1C A18U C27G A57G, for which the self-cleavage amounted to 0.19.

With U1A U26C C29U A65G A77G, the self-cleavage is 0.08.

U1A G9A A28G U60C U80C: the self-cleavage came out at 0.05.

On to U1A G10U U31C A64G U69C U78C, for which the self-cleavage is 0.06.

As to U1C A20U U54C U72A, the self-cleavage amounted to 0.18.
